Common to all, as to test: glycan array binding signal (z-score within array); higher = stronger binding
Holding throughout (conditions): glycan notation: IUPAC condensed, linker removed; mutation: R74S

Assay [1] deals with Gal(b1-4)GlcNAc(b1-3)Gal(b1-4)GlcNAc(b1-3)Gal(b1-4)GlcNAc(b1-3)Gal(b1-4)GlcNAc(b1-2)Man(a1-3)[Gal(b1-4)GlcNAc(b1-3)Gal(b1-4)GlcNAc(b1-3)Gal(b1-4)GlcNAc(b1-3)Gal(b1-4)GlcNAc(b1-2)Man(a1-6)]Man(b1-4)GlcNAc(b1-4)GlcNAc. In outline: (§1)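 Glycan array data came from 3228 arrays in the Consortium for Functional Glycomics database, and only arrays with an available protein sequence were kept. Glycan names were put into IUPAC-condensed notation, and columns mapping to the same glycan were averaged. The binding signal is a within-array Z-score, averaged across arrays of one protein sequence run at different concentrations or buffers and across linkers. A negative Z-score can be read as non-binding.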

The target of assay [2] is Gal(b1-4)GlcNAc(b1-3)Gal(b1-4)GlcNAc(b1-3)Gal(b1-4)GlcNAc(b1-3)Gal(b1-4)GlcNAc(b1-2)Man(a1-3)[Gal(b1-4)GlcNAc(b1-3)Gal(b1-4)GlcNAc(b1-3)Gal(b1-4)GlcNAc(b1-3)Gal(b1-4)GlcNAc(b1-2)Man(a1-6)]Man(b1-4)GlcNAc(b1-4)[Fuc(a1-6)]GlcNAc. The procedure, abridged: as §1
Assay [3] has as its target Gal(b1-4)GlcNAc(b1-3)Gal(b1-4)GlcNAc(b1-3)Gal(b1-4)GlcNAc(b1-3)Gal(b1-4)GlcNAc(b1-2)[Gal(b1-4)GlcNAc(b1-3)Gal(b1-4)GlcNAc(b1-3)Gal(b1-4)GlcNAc(b1-3)Gal(b1-4)GlcNAc(b1-6)]Man(a1-6)[Gal(b1-4)GlcNAc(b1-3)Gal(b1-4)GlcNAc(b1-3)Gal(b1-4)GlcNAc(b1-3)Gal(b1-4)GlcNAc(b1-2)Man(a1-3)]Man(b1-4)GlcNAc(b1-4)[Fuc(a1-6)]GlcNAc. The procedure, abridged:
as §1

Assay [4] has as its target Gal(b1-4)GlcNAc(b1-3)Gal(b1-4)GlcNAc(b1-3)Gal(b1-4)GlcNAc(b1-3)Gal(b1-4)GlcNAc(b1-3)Gal(b1-4)GlcNAc(b1-2)Man(a1-3)[Gal(b1-4)GlcNAc(b1-3)Gal(b1-4)GlcNAc(b1-3)Gal(b1-4)GlcNAc(b1-3)Gal(b1-4)GlcNAc(b1-3)Gal(b1-4)GlcNAc(b1-2)Man(a1-6)]Man(b1-4)GlcNAc(b1-4)GlcNAc. In outline: as §1
Assay [5] addresses Gal(b1-4)GlcNAc(b1-3)Gal(b1-4)GlcNAc(b1-3)Gal(b1-4)GlcNAc(b1-3)Gal(b1-4)GlcNAc(b1-3)Gal(b1-4)GlcNAc(b1-2)Man(a1-3)[Gal(b1-4)GlcNAc(b1-3)Gal(b1-4)GlcNAc(b1-3)Gal(b1-4)GlcNAc(b1-3)Gal(b1-4)GlcNAc(b1-3)Gal(b1-4)GlcNAc(b1-2)Man(a1-6)]Man(b1-4)GlcNAc(b1-4)[Fuc(a1-6)]GlcNAc. The procedure, abridged: as §1
The target of assay [6] is Gal(b1-4)GlcNAc(b1-3)Gal(b1-4)GlcNAc(b1-3)Gal(b1-4)GlcNAc(b1-3)Gal(b1-4)GlcNAc(b1-3)Gal(b1-4)GlcNAc(b1-2)[Gal(b1-4)GlcNAc(b1-3)Gal(b1-4)GlcNAc(b1-3)Gal(b1-4)GlcNAc(b1-3)Gal(b1-4)GlcNAc(b1-3)Gal(b1-4)GlcNAc(b1-6)]Man(a1-6)[Gal(b1-4)GlcNAc(b1-3)Gal(b1-4)GlcNAc(b1-3)Gal(b1-4)GlcNAc(b1-3)Gal(b1-4)GlcNAc(b1-3)Gal(b1-4)GlcNAc(b1-2)Man(a1-3)]Man(b1-4)GlcNAc(b1-4)[Fuc(a1-6)]GlcNAc. The procedure, abridged:
as §1

The target of assay [7] is Gal(b1-4)GlcNAc(b1-3)Gal(b1-4)GlcNAc(b1-3)Gal(b1-4)GlcNAc(b1-3)Gal(b1-4)GlcNAc(b1-3)Gal(b1-4)GlcNAc(b1-3)Gal(b1-4)GlcNAc(b1-2)Man(a1-3)[Gal(b1-4)GlcNAc(b1-3)Gal(b1-4)GlcNAc(b1-3)Gal(b1-4)GlcNAc(b1-3)Gal(b1-4)GlcNAc(b1-3)Gal(b1-4)GlcNAc(b1-3)Gal(b1-4)GlcNAc(b1-2)Man(a1-6)]Man(b1-4)GlcNAc(b1-4)GlcNAc. The procedure, abridged: as §1
The target in assay [8] is Gal(b1-4)GlcNAc(b1-3)Gal(b1-4)GlcNAc(b1-3)GalNAc. In outline: as §1
Assay [9] addresses Gal(b1-4)GlcNAc(b1-3)Gal(b1-4)GlcNAc(b1-3)[Gal(b1-4)GlcNAc(b1-3)Gal(b1-4)GlcNAc(b1-6)]GalNAc. In outline: as §1
In assay [10] the target is Gal(b1-4)GlcNAc(b1-3)Gal(b1-4)GlcNAc(b1-6)[Gal(b1-3)]GalNAc. In outline: as §1
Assay [11] addresses Gal(b1-4)GlcNAc(b1-3)Gal(b1-4)[Fuc(a1-3)]GlcNAc(b1-3)Gal(b1-4)[Fuc(a1-3)]GlcNAc. In outline: as §1
Assay [12] has as its target Gal(b1-4)GlcNAc(b1-3)GalNAc. The procedure, abridged: as §1
The target of assay [13] is Gal(b1-4)GlcNAc(b1-3)[Fuc(a1-3)GlcNAc(b1-6)]Gal(b1-4)Glc. The procedure, abridged:
as §1

Assay [14] has as its target Gal(b1-4)GlcNAc(b1-3)[Gal(b1-4)GlcNAc(b1-6)]Gal(b1-4)GlcNAc. The procedure, abridged:
as §1

The target of assay [15] is Gal(b1-4)GlcNAc(b1-3)[GlcNAc(b1-6)]Gal(b1-4)GlcNAc. In outline:
as §1

Assay [16] addresses Gal(b1-4)GlcNAc(b1-6)Gal(b1-4)GlcNAc. The procedure, abridged:
as §1

In assay [17] the target is Gal(b1-4)GlcNAc(b1-6)GalNAc. In outline: as §1
For assay [18], the target named is Gal(b1-4)GlcNAc(b1-6)[Gal(b1-3)]GalNAc. In outline: as §1
Assay [19] has as its target Gal(b1-4)GlcNAc(b1-6)[Gal(b1-4)GlcNAc(b1-3)]GalNAc. In outline: as §1
The next assay deals with Gal(b1-4)GlcNAc6P. In outline:
as §1

The next assay addresses Gal(b1-6)Gal. In outline: as §1
In another assay the target is Gal3S(b1-3)GalNAc. In outline:
as §1

In a further assay the target is Gal3S(b1-3)GlcNAc. In outline: as §1

Some of the results follow.

B1: Gal 7 (Homo sapiens) (protein)
chain: MSNVPHKSSLPEGIRPGTVLRIRGLVPPNASRFHVNLLCGEEGGSDAALHFNPRLDTSEVVFNSKEGGSWGREESGPGVPFGRGQPFEVLIIASDDGFKAVVGDAQYHHFRHRLPLARVRLVEVGGDVQLDSVRIF
On to B1, for which the “glycan array binding signal (z-score)” value is 5.53 in assay [1]; 4.17 in assay [2]; 4.03 in assay [3]; 7.44 in assay [4]; 4.13 in [5]; 4.35 in [6]. The “glycan array binding signal (z-score)” value in [7] is 2.18; in assay [8], -0.104; in [9] it was 0.433; in assay [10], -0.074; in assay [11], -0.27; in assay [12], -0.281. Also, the “glycan array binding signal (z-score)” value was 0.007 in assay [13]; -0.52 in [14]; 0.58 in assay [15]; -0.72 in assay [16]; -0.373 in assay [17]; 0.055 in assay [18]. Also, the “glycan array binding signal (z-score)” value in assay [19] is -0.588; with Gal(b1-4)GlcNAc6P, -0.471; with Gal(b1-6)Gal it was -0.328; with Gal3S(b1-3)GalNAc, -0.084; with Gal3S(b1-3)GlcNAc, 0.311.

(Values after the supplement of paper PMC8728848.)
